# Source: PubChem BioAssay AID504845 (National Center for Advancing Translational Sciences (NCATS), 2011)
# “And” between values parts separate entries of the source, which are not always exact repeats. Identical values can stand only once. Out of some 390,000 compounds screened, about 150 (0.038%) were called active. This list was built around the results that the source calls inconclusive (neither active nor inactive); the mix of calls is not that of the screen. Calls follow the shape of the dose curve; as a rule, active = well fitted inhibition curve with a large enough effect; inconclusive = small, poorly fitted or top-dose-only effect; inactive = no such curve, though single readings can be large or run the other way. Potencies of inconclusive entries are doubtful fits and often do not repeat.
# Target: Regulator of G-protein signaling 4 (Homo sapiens) (UniProt P49798)
# Assay: Inhibitors of Regulator of G Protein Signaling (RGS) 4: qHTS; also: nearly all actives have a fitted effect of over 75% in size
# Conditions: Transcreener GDP fluorescence polarization, RGS4-accelerated GTP hydrolysis; series mostly up to 114 µM
# Outline: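 MLSMR compounds (23 nl, pin-transferred) preincubated 10 min at room temperature with a 500nM (2x) first reagent, then RGS4 at 900nM (2x) plus Transcreener GDP mix added; fluorescence polarization (620/688 nm) read before and after 90 min at 30 °C.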
# Potency is read from the fitted curve at half-maximal effect; tags tell the direction and shape of the fitted curve.
# Sequence of UniProt P49798 (P49798 whole entry, looked up): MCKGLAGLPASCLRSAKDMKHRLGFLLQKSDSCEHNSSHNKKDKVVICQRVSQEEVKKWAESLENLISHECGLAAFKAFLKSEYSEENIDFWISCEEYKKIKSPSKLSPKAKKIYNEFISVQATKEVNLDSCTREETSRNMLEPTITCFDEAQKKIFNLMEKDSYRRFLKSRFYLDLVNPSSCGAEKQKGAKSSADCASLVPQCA
row,Structure (SMILES),Potency
1,Cc1ccnc(N/C=C(\C#N)c2nc(-c3cccc(Br)c3)cs2)c1,"inconclusive: 17.8 µM [inhibitor, full curve, poor fit]"
2,COCCNC(=O)CCn1c(=O)oc2ccccc21,inactive
3,O=S(=O)(Nc1cc(Br)cc2cccnc12)c1cccc2ccccc12,inactive
4,CNC(=O)NNC(=O)c1csc(Cc2c(Cl)sc3ccc(Cl)cc23)n1,"inconclusive: 89.1 µM [inhibitor, single point]"
5,CCN(C(=O)COC(=O)c1cc(-c2ccc(C)o2)nc2ccccc12)C1CCS(=O)(=O)C1 (centres undefined),"inconclusive: 44.7 µM [inhibitor, partial curve, poor fit]"
6,O=c1cc(-c2ccccc2F)oc2ccccc12,inactive
7,Cc1ccc(C2CC2c2n[nH]c(=S)n2-c2ccc(C)cc2)cc1 (centres undefined),"inconclusive: 79.4 µM [inhibitor, single point]"
8,CCOC(=O)c1c(NC(=O)c2cc(CC)on2)sc(C)c1C,"inconclusive: 25.1 µM [inhibitor, full curve, poor fit]"
9,CC1CCc2nc(N)c(C#N)c(-c3cccnc3)c2C1 (centres undefined),inactive
10,COc1ccccc1NC(=O)c1cc(S(=O)(=O)N(C)C2CCCCC2)ccc1F,inactive
11,Cc1cccc(-n2ncc3c(N(C)C4CCCCC4)ncnc32)c1,inactive
12,COc1cc(-c2nc(-c3ccc(NC(=O)c4ccc(Br)o4)cc3)no2)cc(OC)c1OC,"inconclusive: 79.4 µM [inhibitor, partial curve, poor fit]"
13,CN(CCO)c1cc(Sc2nc3ccccc3s2)c2nonc2c1[N+](=O)[O-],"inconclusive: 28.2 µM [inhibitor, full curve, poor fit]"
14,O=C(CSc1nc2ccccc2c(=O)[nH]1)c1ccc(O)cc1O,inactive
15,COCCCNC(=O)c1ccc2c(c1)N=C(C)c1c(C)ccc(C)c1S2,inactive
16,Cc1sc2nc[nH]c(=S)c2c1-c1ccccc1,"inconclusive: 10 µM [inhibitor, full curve, poor fit]"
17,Cc1nnnn1/C(=C\c1ccccc1)C(=O)OCC(=O)NC(C)(C)C,inactive
18,COc1cc(/C=C2\SC(=O)N(CC(=O)Nc3cccc(C)c3)C2=O)cc([N+](=O)[O-])c1O,"inconclusive: 17.8 µM [inhibitor, full curve, poor fit]"
19,Cn1c(=O)c2c(SCC(=O)N3CCOCC3)nc(-c3ccccc3Cl)nc2n(C)c1=O,inactive
20,O=C(/C=C/c1ccc(Cl)c(Cl)c1)NC1=NCCS1,"inconclusive: 50.1 µM [inhibitor, partial curve, poor fit]"
21,COc1cccc(C2=CC(=O)CC(c3ccco3)C2)c1 (centres undefined),"inconclusive: 89.1 µM [inhibitor, partial curve, poor fit]"
22,COc1cc(CN(C(=O)COc2ccc(Br)cc2)c2ccccn2)cc(OC)c1OC,inactive

row,Structure (SMILES),Potency
1,Cc1csc(NC(=O)CSc2sc3c(O)cc(=O)[nH]c3c2C#N)n1,inactive
2,Oc1ccccc1-c1nnc(COc2ccc(Cl)cc2Cl)o1,"inconclusive: 17.8 µM [inhibitor, full curve, poor fit]"
3,CC(/C=N/n1c(-c2cccnc2)n[nH]c1=S)=C\c1ccccc1,"inconclusive: 79.4 µM [inhibitor, partial curve, poor fit]"
4,Clc1cccc(C2Nc3cccc4cccc(c34)N2)c1Cl,"inconclusive: 79.4 µM [inhibitor, partial curve, poor fit]"
5,O=c1c2ccccc2nc(SCCN2CCCCC2)n1CCc1ccccc1,inactive
6,COc1cc(C(=O)NCC(c2ccc(N(C)C)cc2)N2CCc3ccccc32)cc(OC)c1OC (centres undefined),inactive
7,CC1=NN(c2ccccc2)C(=O)/C1=C/c1cccc(C)c1,"inconclusive: 89.1 µM [inhibitor, partial curve, poor fit]"
8,O=C(O)CCN1C(=O)/C(=C/c2cn(-c3ccccc3)nc2-c2cccs2)SC1=S,"inconclusive: 79.4 µM [inhibitor, partial curve, poor fit]"
9,O=C(O)c1ccc(CSc2nnc(SCc3ccccc3)s2)cc1,inactive
10,CCCC12CN3CC(CCC)(CN(C1)C3c1ccc(OCc3ccccc3)cc1)C2=O (centres undefined),inactive
11,O=C1/C(=C/c2ccc(F)cc2)SC(=S)N1NS(=O)(=O)c1ccccc1,"inconclusive: 89.1 µM [inhibitor, partial curve, poor fit]"
12,CCOC(=O)C1Nc2ccc(Br)cc2C2C=CCC12 (centres undefined),"inconclusive: 79.4 µM [inhibitor, single point]"
13,CC1CCCN(CCCNC(=O)c2nn(C)c3c2CS(=O)(=O)c2ccccc2-3)C1 (centres undefined),"inconclusive: 79.4 µM [inhibitor, partial curve, poor fit]"
14,OCCN(CCO)c1nc(N2CCCCC2)c2nc(N(CCO)CCO)nc(N3CCCCC3)c2n1,"inconclusive: 1.19 µM [inhibitor, partial curve, poor fit] and inconclusive: 18.9 µM [inhibitor, single point]"
15,Cc1cc(O)c(C=O)c2c1C(=O)Oc1c(CO)c(O)c3c(c1O2)C(O)OC3=O (centres undefined),inactive
16,COc1ccccc1/C=C/C=N/n1c(-c2ccc(C)cc2)n[nH]c1=S,"inconclusive: 89.1 µM [inhibitor, single point]"
17,CCn1cc(C(=O)N[C@H](C(=O)NCCCO)C(C)C)c(=O)c2cc3c(cc21)OCO3,inactive
18,O=c1cc(-c2ccsc2)oc2ccc(-c3ccc4cc[nH]c4c3)cc12,"inconclusive: 89.1 µM [inhibitor, single point]"
19,CC(C)Cc1nnc(NC(=O)c2cc3c(s2)CCC3)s1,inactive
20,CCOC(=O)c1c(NC(=S)NNS(=O)(=O)c2ccc(Br)cc2)sc2c1CCCCC2,inactive
21,Cc1ccc(C(=O)Nc2cccc([N+](=O)[O-])c2)cc1S(=O)(=O)Nc1cccc(C(=O)O)c1,"inconclusive: 44.7 µM [inhibitor, partial curve, poor fit]"
22,CCCOc1ccc(C(=O)CCNC(Cc2c[nH]c3ccccc23)C(=O)O)cc1 (centres undefined),"inconclusive: 17.8 µM [inhibitor, full curve, poor fit]"
